This is an account of results in article PMC10668032.

Some of the results follow. At the low end of the ranking, values are background and their order means little.

The target of the test is SIX1-Q177R homeodomain (UniProt Q15475). Put plainly: universal protein binding microarray. The note with it: Universal all-10-mer PBM (8x60K, AMADID 030236), 300 nM GST-tagged protein, Alexa Fluor 488 anti-GST; buffer, salt, pH and temperature not stated; high values mean tight binding; most listed sequences are background and not binding sites; double strand, one strand shown.
For CCTCCACC, the binding signal amounted to 0.0104 E-score. Then CTAGCAGC, with -0.143 E-score; and GCTTCACC, with -0.0492 E-score; and GGGCGCAC, with 0.034 E-score.

Regarding GATACGGA, the binding signal was 0.215 E-score. GTTACGTA: the binding signal is -0.0292 E-score. For the sequence TATACCAA, the binding signal was determined as 0.0301 E-score. The same measure for GGTAAGAC: 0.0227 E-score. As for GGATACAA, the binding signal came out at 0.161 E-score. The same measure for GATCCAAA: -0.0941 E-score; for TTACTAAA: 0.038 E-score; for ATCCCAAC: 0.136 E-score. The same measure for AGGAATTC: -0.242 E-score.

Take AGAACTTC: the binding signal was -0.313 E-score. With CCGTAGTA, the binding signal was -0.0743 E-score. The same measure for ACCAGGTG: 0.217 E-score; for TAGTGATA: 0.0624 E-score.

As for CGGGGAAG, the binding signal is 0.109 E-score.

For the sequence AACCGTTG, the binding signal is -0.0123 E-score. As for GATTTCCA, the binding signal is -0.217 E-score.

Regarding AGCTCAAC, the binding signal stood at 0.00413 E-score. For CTGCTAAG, the binding signal is -0.127 E-score. With AGCGTGAA, the binding signal was -0.118 E-score. As to TCTCCACA, the binding signal was -0.0547 E-score. For CCACGGCA, the binding signal came out at 0.0366 E-score. The same measure for CCACTAGG: -0.119 E-score; for CAACACTG: 0.323 E-score; for ATGATGAA: -0.198 E-score. Then AGATAACC, with -0.175 E-score; and CGGTTGAG, with -0.0399 E-score; and AGGACCCT, with 0.0335 E-score. The same measure for AACATATC: -0.00863 E-score; for CTTATACA: 0.0531 E-score; for GTATTGAA: 0.0724 E-score. Regarding AGTACTTC, the binding signal was -0.17 E-score. The same measure for ATTGAATC: -0.175 E-score; for AACACCTG: 0.445 E-score; for CGTCGAAG: -0.191 E-score. The same measure for AGGCTCAT: -0.113 E-score; for GCCCCCCA: -0.0772 E-score.

AAGCCATC: the binding signal was -0.153 E-score.

Regarding ACCTAAGC, the binding signal stood at 0.0688 E-score.

For the sequence AATCTGAA, the binding signal was -0.176 E-score. The same measure for ACTAAATA: -0.01 E-score. The same measure for ACTGCCCA: 0.0497 E-score; for AAAACACA: 0.188 E-score.

Regarding AACAATCT, the binding signal is -0.196 E-score.

CCTACAAA: the binding signal was determined as 0.00881 E-score. The same measure for GTCAGCGA: -0.146 E-score.

As for ACCGTACC, the binding signal stood at 0.125 E-score. On to AACGGCTC, for which the binding signal is -0.101 E-score.

With CAATCGAA, the binding signal was -0.117 E-score. Then ATTGGCCA, with -0.0169 E-score; and ATGTAAAC, with 0.0561 E-score.

ACATTGAT: the binding signal was -0.104 E-score. Then CTGCCGCC, with -0.0445 E-score; and GATCAAGC, with 0.0656 E-score. For AAATATGT, the binding signal was -0.0304 E-score. Then TATATAAA, with -0.111 E-score; and AAGATTTA, with -0.0129 E-score; and CCCACCGA, with -0.00518 E-score. Regarding AGATCACA, the binding signal amounted to 0.0681 E-score. For the sequence ACGCAGTA, the binding signal was -0.0424 E-score. Take AAGAAGGG: the binding signal was found to be 0.0114 E-score. Then ATCAATGC, with -0.269 E-score; and CATGTGAA, with -0.182 E-score. The same measure for GCACGGTA: 0.165 E-score; for CTTGGCGA: -0.0813 E-score.

With AAACGAGG, the binding signal was -0.0939 E-score. The same measure for ATTTGATG: -0.149 E-score; for CCAAATCA: -0.0398 E-score; for AGCGACCA: -0.112 E-score. The same measure for CTGTTCGC: 0.00161 E-score; for ATAGGTAG: -0.158 E-score; for GATCAAAC: -0.0659 E-score.

Regarding CCCTGTAC, the binding signal turned out to be 0.173 E-score. Then AAAGGTAT, with 0.147 E-score; and ACTGGCAT, with -0.0661 E-score; and CCAGGAAC, with -0.00204 E-score.

Consider CCAATATC, for which the binding signal was 0.0301 E-score.

In the case of AAGATTAG, the binding signal was -0.275 E-score.

On to ACAACGCA, for which the binding signal was -0.0627 E-score. For the sequence ATTGGGCC, the binding signal is -0.313 E-score. With AAGCTTAA, the binding signal is -0.0635 E-score. The same measure for AGCGTTAG: -0.0286 E-score; for ATCCAGGC: -0.0874 E-score. Then ACGCCCGC, with 0.0389 E-score; and ACTTTGGA, with -0.0529 E-score; and AAGGTCCG, with 0.00919 E-score. Then ATTGAGGG, with 0.00442 E-score. Turning to GAATGTCA, the binding signal is -0.197 E-score.

On to GTGCACAC, for which the binding signal came out at 0.271 E-score. For CAGGGAGA, the binding signal was -0.0511 E-score. The same measure for AAGCCTCA: -0.196 E-score. Turning to GTTCATAA, the binding signal was -0.178 E-score. Then ATCACATA, with 0.0612 E-score; and GAGACTCC, with 0.14 E-score. Then ATCTCGGA, with -0.0811 E-score; and CAATTTTC, with -0.126 E-score. For the sequence ACAGTCGC, the binding signal is -0.0349 E-score. For the sequence TATTTGCA, the binding signal is -0.276 E-score. Consider ATTTCTAA, for which the binding signal is -0.166 E-score. The same measure for CTTAGTCC: -0.26 E-score; for AAGGACCA: -0.089 E-score; for AAGACGGG: -0.0964 E-score. Regarding ACTGCGGC, the binding signal is -0.22 E-score. The same measure for TTCTGAAA: -0.166 E-score. For the sequence AACTTTCA, the binding signal is -0.113 E-score.

On to CAGTTTTC, for which the binding signal is -0.108 E-score. Then CAATGACA, with 0.198 E-score; and TGACGCCA, with 0.178 E-score. The same measure for GATCAATA: -0.196 E-score; for AAGCCGAT: -0.161 E-score. For the sequence ACTCCCTG, the binding signal was found to be 0.163 E-score. The same measure for GGACCTCC: -0.179 E-score; for CTAGAGTC: -0.13 E-score; for AATGTCGA: -0.18 E-score. The same measure for CACAAGCA: 0.107 E-score; for CTGTCCAC: -0.199 E-score. Then GGCGATCA, with -0.118 E-score; and GCGACGAA, with -0.196 E-score; and AATAAAGA, with 0.126 E-score. Take CTCGCCCA: the binding signal amounted to 0.0836 E-score. For AGTGGTAG, the binding signal was determined as 0.157 E-score. Regarding CTGATCGA, the binding signal was -0.183 E-score.

On to CCCCCCCG, for which the binding signal was found to be 0.218 E-score. Then AGAATTTG, with -0.109 E-score; and CCGGTGAC, with 0.0956 E-score; and CATTCCGA, with -0.0785 E-score. In the case of GGTTAAGA, the binding signal worked out at 0.0477 E-score. Then GAGTTCCA, with -0.0662 E-score. GTTGGGAA: the binding signal was -0.191 E-score. Turning to ACTTCGAG, the binding signal is -0.21 E-score.

As to GGCGCTGA, the binding signal is -0.141 E-score. GAGGACAA: the binding signal was -0.00825 E-score.

In the case of GCAATTAA, the binding signal was -0.0798 E-score. Turning to GGTCTCAC, the binding signal worked out at 0.0109 E-score. As for GCAGGCCA, the binding signal was -0.182 E-score. Then GGTGGTAC, with -0.00286 E-score; and GATACTCC, with 0.223 E-score; and GGGTGCAC, with 0.28 E-score. Then CCCCGCGA, with 0.16 E-score; and CATGGTAA, with -0.0286 E-score; and CCTCAAAA, with -0.167 E-score. The same measure for AGGGGTAA: 0.224 E-score; for ACGCGTAC: 0.0975 E-score. With ACGTACAA, the binding signal was -0.195 E-score. With CGCTGAAA, the binding signal was -0.115 E-score. Take ATTGAAAG: the binding signal was -0.118 E-score.

For CTTATCCC, the binding signal is -0.00404 E-score. As to ATTCAAAC, the binding signal is -0.18 E-score. The same measure for AAATCATA: -0.13 E-score; for ATGAATCA: -0.19 E-score; for ACTGAGTC: -0.0101 E-score. As to GAGCATCA, the binding signal was -0.28 E-score. Then GTCGCCGA, with 0.0743 E-score; and CGCATGTA, with -0.0958 E-score; and TGCGGCCA, with -0.221 E-score.

In the case of ATAAGGGC, the binding signal was -0.0279 E-score. The same measure for ACTATATA: 0.0613 E-score.

Consider CAGATGTA, for which the binding signal was -0.176 E-score.

Consider ACATTTAG, for which the binding signal turned out to be 0.00825 E-score.

Take AGGATGTG: the binding signal was -0.0948 E-score. The same measure for AGGGTTCC: 0.0789 E-score.

AACTTAGT: the binding signal is -0.194 E-score. The same measure for AGAGTCAT: 0.187 E-score.

With AAATCAAC, the binding signal is -0.139 E-score. The same measure for CCCATGTC: -0.0132 E-score; for AGGGGCCG: -0.141 E-score; for GATGCGGC: -0.182 E-score. The same measure for GCCCGCCC: 0.053 E-score; for ACTCTTCC: -0.0971 E-score.
